Each structure is given as a SMILES string. Out of some 150,000 compounds screened, about 540 (0.36%) showed an effect of 50% or more. The list shows a part of the results.

In this experiment the test system is Plasmodium falciparum. As to the kind of experiment: Primary screen in NF54 nanoGlo assay, in single point, at 2uM, 72h; a lower Z score goes with more inhibition. The experiment is classed as functional, Erythrocyte. The settings on record: timepoint 72 hour.
A word on the % Inhibition: it is the drop in the measured response relative to a control, in per cent. In the case of `C=CCN1CN=C(NS(=O)(=O)c2ccc(C)cc2)NC1`, the “% Inhibition” value worked out at 5% and the Z score is listed as -0.71.
Regarding `O=C(O)C1(CCCc2ccccc2)CCN(C[C@H]2CCOC2)CC1`, the “% Inhibition” value is given as -9% and the Z score is reported as 1.67.
On to `CC1CCC(O)C(C2CCCN2C(=O)C2CC=CC2)C1` (stereo unspecified), for which the “% Inhibition” value is -11% and the Z score was determined as 1.07.
Regarding `Cc1occc1C(=O)NC1CCCCC1`, the “% Inhibition” value is given as -5% and the Z score worked out at 0.78.
For the compound `O=C(Nc1ccc2c(c1)OCCO2)N[C@H]1CC(=O)N(c2ccc3c(c2)OCCO3)C1`, the “% Inhibition” value came to 15% and the Z score is -1.95.
As for `CCO[C@H]1COC[C@@H]1n1cnc2c(Cl)ccc(Cl)c2c1=O`, the “% Inhibition” value was -14% and the Z score came out at 2.34.
`CCC[C@H]1CN(C(=O)c2ccc(N3CCCC3=O)cc2)C[C@@H]1N(C)C`: the “% Inhibition” value is recorded as -17% and the Z score amounted to 2.86.
With `Cc1cccnc1N1CC[C@H](NC(=O)c2ccccc2)[C@@H](O)C1`, the “% Inhibition” value was -11% and the Z score is given as 1.06.
For `COc1cn(CC(=O)NC2CCCCCCC2)c(CO)cc1=O` the same measures were 35% and -3.99.
Take `Cc1cc(C)n(CCC(=O)Nc2c(C)cnn2[C@@H](C)C2CC2)c(=O)n1`: the “% Inhibition” value was -7% and the Z score stood at 0.98.
As for `O=C(NC[C@@H](c1ccco1)n1cccn1)c1ccccc1F`, the “% Inhibition” value is -8% and the Z score worked out at 1.09.
As for `CCn1c(Cn2nc(C)c(C)c(C#N)c2=O)nc2cc(S(=O)(=O)N3CCCCC3)ccc21`, the “% Inhibition” value was -15% and the Z score was 2.39.
As for `CC(NC(=O)c1ccc(-c2cnccn2)cc1)C(O)Cc1ccccc1` (stereo unspecified), the “% Inhibition” value was -2% and the Z score is reported as 0.36.
On the same counts, the results for `Cc1cc(-c2cccs2)nn1CCN` are -3% and 0.33.
On to `N#Cc1ccc(O)c(NC(=O)c2snc(O)c2Cl)c1`, for which the “% Inhibition” value worked out at 42% and the Z score is -6.09.
On to `COCC[C@@H](CO)NC(=O)Nc1cc(-c2cccc(F)c2)on1`, for which the “% Inhibition” value is on record as -3% and the Z score was found to be 0.44.
Turning to `CC(C)CCN1C[C@]23C=C[C@H](O2)C(C(=O)N2CCc4n[nH]cc4C2)C3C1=O` (stereo partly specified), the “% Inhibition” value is reported as -20% and the Z score is on record as 2.32.
On to `CS(=O)(=O)Nc1ccc(F)c(NC(=O)N(Cc2nccs2)C2CC2)c1`, for which the “% Inhibition” value is reported as -12% and the Z score was determined as 2.29.
As for `O=C(N[C@H]1CCN(Cc2cscn2)C[C@@H]1O)c1cnc2c(c1)CCCC2`, the “% Inhibition” value came out at 2% and the Z score is recorded as -0.16.
For `OC[C@@H]1CC[C@H](CNCc2ccc(OC(F)F)c(F)c2)O1`, the “% Inhibition” value is reported as 2% and the Z score is -0.26.
On the same counts, the results for `CN1C[C@@H](Nc2ccc(C#N)cc2F)CCC1=O` are -5% and 0.64.
Take `CC[C@@H](Cn1c(=O)[nH]c2ccccc2c1=O)N1CCCC1`: the “% Inhibition” value turned out to be 6% and the Z score was -0.92.
With `CC(C)(C)OCC(=O)N(Cc1ccccn1)c1ccc(F)cc1`, the “% Inhibition” value was 10% and the Z score was -1.04.
In the case of `CC1CCCC(C)C1NS(=O)(=O)c1ccnn1C` (stereo unspecified), the “% Inhibition” value was 3% and the Z score was -0.48.
With `O=C(NCc1ccc2[nH]cnc2c1)C1(N2CCCC2)CCCC1`, the “% Inhibition” value is listed as -17% and the Z score amounted to 3.1.
Turning to `CO[C@H]1CCCC[C@@H]1NC(=O)CCc1ccc(C)cc1C`, the “% Inhibition” value is given as -15% and the Z score amounted to 2.78.
`C#CCC1(C(=O)N2CCCC(CNC(=O)CCC)C2)CCCN1C(=O)OC(C)(C)C` (stereo unspecified): the “% Inhibition” value is given as -6% and the Z score is recorded as 0.75.
In the case of `FC(F)(F)COCCCOc1nnc2ccccn12`, the “% Inhibition” value is on record as -9% and the Z score worked out at 1.21.
`COc1ccc(OCC(=O)NCC(C)C)c(C(N)=O)c1`: the “% Inhibition” value is given as -10% and the Z score was 0.87.
For `Cc1ccc(CN(C)c2ncnc3nc(N)ccc23)cc1` the same measures were -7% and 0.7.
In the case of `CC1CCC(O)(CS(=O)(=O)Cc2csc(C3CC3)n2)CC1` (stereo unspecified), the “% Inhibition” value is -12% and the Z score was 1.94.
For `COc1cc(CN(C)Cc2cnccn2)cc(Cl)c1OCC(N)=O`, the “% Inhibition” value is listed as -17% and the Z score came out at 2.65.
In the case of `O=C(CC1CCN(C(=O)c2nnc(C(=O)Nc3ccccc3)s2)CC1)NCc1ccccn1`, the “% Inhibition” value was -20% and the Z score came out at 1.74.
On the same counts, the results for `Cc1ncsc1C(=O)N1CC(=O)Nc2cnccc21` are -1% and 0.11.
For `CCCOc1cc(CNS(=O)(=O)CC(CC)CC)ccn1`, the “% Inhibition” value turned out to be 1% and the Z score is given as -0.12.
`CC[C@H]1CN(C)CCCN1C(=O)c1cc(C)n(-c2cccc(F)c2)n1`: the “% Inhibition” value was 2% and the Z score is given as -0.44.
As for `CC(C)(C)c1coc(CNC(=O)NCc2noc3c2CCCC3)n1`, the “% Inhibition” value was -15% and the Z score is 2.94.
For `CCNc1nc(C(=O)N2CCO[C@H](c3ccsc3)C2)cs1`, the “% Inhibition” value was -9% and the Z score was 1.5.
As to `O=C(O)Cc1ccc(/C=C/C2CCCCC2)nc1`, the “% Inhibition” value is listed as -6% and the Z score came out at 0.92.
`Cn1cncc1[C@H]1C[C@@H]1c1nc(-c2ccoc2)no1`: the “% Inhibition” value is -13% and the Z score was found to be 1.71.
With `Cn1cccc(C(=O)Nc2nc(C3CC3)cs2)c1=O`, the “% Inhibition” value is reported as -7% and the Z score was determined as 0.78.
As for `O=C(c1csc2c1CCCC2)N1CCN(Cc2ccc3c(c2)OCO3)CC1`, the “% Inhibition” value is -3% and the Z score came out at 0.47.
Consider `Cn1nc(C2CCCCC2)cc1[C@H]1CN2CC[C@H]1C[C@@H]2CNC(=O)CC(C)(C)CC(=O)O`, for which the “% Inhibition” value was found to be 9% and the Z score is given as -1.01.
